T1: full-length human TIGIT on the cell membrane (CHO-K-TIGIT cells; TIGIT-Jurkat cells) (human, UniProt Q495A1 22-244)
T1 construct: whole, on cells; Also used here for TIGIT on human PBMCs in the IFN-gamma assay; also called CHO-TIGIT
T1 sequence (looked up): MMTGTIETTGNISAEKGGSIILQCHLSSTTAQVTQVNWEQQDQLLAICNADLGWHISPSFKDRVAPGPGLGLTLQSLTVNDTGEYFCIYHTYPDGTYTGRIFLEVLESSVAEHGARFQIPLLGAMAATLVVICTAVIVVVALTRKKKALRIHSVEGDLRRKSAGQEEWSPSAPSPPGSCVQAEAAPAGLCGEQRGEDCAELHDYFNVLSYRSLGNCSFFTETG

T2: recombinant IL2Rβ subunit (Sinobio) (UniProt P14784 27-239, limits assumed)
T2 construct: also called IL2RB
T2 sequence (looked up): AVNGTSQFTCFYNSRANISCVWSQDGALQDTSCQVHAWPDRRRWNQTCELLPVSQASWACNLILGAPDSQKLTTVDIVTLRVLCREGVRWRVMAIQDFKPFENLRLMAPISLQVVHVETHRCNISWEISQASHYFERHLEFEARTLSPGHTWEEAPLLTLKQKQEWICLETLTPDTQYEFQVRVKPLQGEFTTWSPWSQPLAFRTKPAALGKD

T3: IL2Rαγ (dimer) on 293F cells (human, UniProt P01589 22-272; P31785 23-369)
T3 construct: whole, on cells
T3 sequence (looked up) 1: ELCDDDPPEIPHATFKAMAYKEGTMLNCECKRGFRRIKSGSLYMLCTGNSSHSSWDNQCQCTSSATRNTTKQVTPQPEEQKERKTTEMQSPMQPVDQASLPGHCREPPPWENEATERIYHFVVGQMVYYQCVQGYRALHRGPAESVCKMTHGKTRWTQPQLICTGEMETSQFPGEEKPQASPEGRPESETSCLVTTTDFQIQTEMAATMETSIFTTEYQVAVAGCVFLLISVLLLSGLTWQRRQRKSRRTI
T3 sequence (looked up) 2: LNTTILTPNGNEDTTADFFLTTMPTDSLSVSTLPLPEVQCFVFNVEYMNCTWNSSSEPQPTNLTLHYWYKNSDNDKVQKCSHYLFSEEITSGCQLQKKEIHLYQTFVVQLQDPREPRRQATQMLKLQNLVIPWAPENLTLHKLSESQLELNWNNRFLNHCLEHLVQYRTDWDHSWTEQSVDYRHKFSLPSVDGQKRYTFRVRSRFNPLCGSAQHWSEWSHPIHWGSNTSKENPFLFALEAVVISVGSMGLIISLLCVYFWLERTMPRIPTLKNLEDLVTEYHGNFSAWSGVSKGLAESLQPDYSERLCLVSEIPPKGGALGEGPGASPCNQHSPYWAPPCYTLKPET

B1: HC1-IL2wt/LC1(ART-Ig) (other)
heavy 1: EVQVVESGGGLVKPGGSLRLSCAASGFTFSTYAMSWVRQAPGKGLEWVAEISSGGSHTFYADTVKGRFTISRDNAKNTLYLQMNSLRAEDTAVYYCARKTLDYYALDYWGQGTTVTVSSASTKGPSVFPLAPSSKSTSGGTAALGCLVKDYFPEPVTVSWNSGALTSGVHTFPAVLQSSGLYSLSSVVTVPSSSLGTQTYICNVNHKPSNTKVDKKV[sequence of human IgG1 Fc with D356K H435R (EU numbers) not given]GGGGSGGGGSGGGGS[sequence of about 150 residues not given]
heavy 2: EVQVVESGGGLVKPGGSLRLSCAASGFTFSTYAMSWVRQAPGKGLEWVAEISSGGSHTFYADTVKGRFTISRDNAKNTLYLQMNSLRAEDTAVYYCARKTLDYYALDYWGQGTTVTVSSASTKGPSVFPLAPSSKSTSGGTAALGCLVKDYFPEPVTVSWNSGALTSGVHTFPAVLQSSGLYSLSSVVTVPSSSLGTQTYICNVNHKPSNTKVDKKV[sequence of human IgG1 Fc with K439E (EU numbers) not given]
light: DVQITQSPSYLSASVGDRVTINCRASKSISKYLAWYQQKPGKAPKLLIYSGSRLQSGIPSRFSGSGYGTDFTLTISSLQPEDFATYYCQQHNEYPWTFGGGTKLEIKRTVAAPSVFIFPPSDEQLKSGTASVVCLLNNFYPREAKVQWKVDNALQSGNSQESVTEQDSKDSTYSLSSTLTLSKADYEKHKVYACEVTHQGLSSPVTKSFNRGEC
notes: Heterodimeric anti-TIGIT ([…]) IgG1 with one wild-type human IL2 on one heavy chain; also called anti-TIGIT antibody HC-IL2 fusion protein (IL2 wild type)
B2: HC1-IL2mut/LC1(ART-Ig) (other)
heavy 1: EVQVVESGGGLVKPGGSLRLSCAASGFTFSTYAMSWVRQAPGKGLEWVAEISSGGSHTFYADTVKGRFTISRDNAKNTLYLQMNSLRAEDTAVYYCARKTLDYYALDYWGQGTTVTVSSASTKGPSVFPLAPSSKSTSGGTAALGCLVKDYFPEPVTVSWNSGALTSGVHTFPAVLQSSGLYSLSSVVTVPSSSLGTQTYICNVNHKPSNTKVDKKV[sequence of human IgG1 Fc with D356K H435R (EU numbers) not given]GGGGSGGGGSGGGGSAPTSSSTKKTQLQLEHLLLDLQMILNGINNYKNPKLTRMLTAKFYMPKKATELKHLQCLEEELKPLEEVLNLAQSKNFHFDPRDVVSNINVFVLELKGSETTFMCEYADETATIVEFLNRWITFCQSIISTLT
heavy 2: B1 heavy 2
light: B1 light
notes: Heterodimeric anti-TIGIT (P03479) IgG1 with one mutant IL2 on one heavy chain; also called anti-TIGIT antibody HC-IL2 fusion protein (IL2mut)

Tests used:
[1] = target: T1, full-length human TIGIT on the cell …; test: flow cytometry on TIGIT-Jurkat cells
Experimental: The binding activity of the anti-TIGIT antibody-IL2 fusion proteins to TIGIT on the cell membrane was tested using flow cytometry. A Jurkat cell line stably expressing human TIGIT was first established. The full-length human TIGIT gene (Sinobio) was amplified by PCR and cloned into the mammalian cell expression vector pcDNA3.1 (Invitrogen), using Not I and Xba I as cloning enzymes. The TIGIT expression plasmid was transfected into Jurkat cells to construct a stable Jurkat cell line expressing TIGIT (TIGIT-Jurkat).
The flow cytometry study method for the binding of TIGIT antibody-IL2 fusion proteins to cell membrane-bound TIGIT is summarized as follows: FACS buffer (1×PBS+0.5% BSA solution) was prepared. The required number of TIGIT-Jurkat cells, about 1×10⁵ to 5×10⁵ cells per sample, was taken and incubated with HC1-IL2 wt/LC1 (ART-Ig) and HC1-IL2mut/LC1 (ART-Ig) diluted to a certain ratio in FACS buffer, approximately 100 μL, at 4° C. for 30 minutes. After washing the cells once with FACS buffer, they were resuspended in FITC-conjugated anti-human IgG (Abcam: 6854) diluted in FACS buffer and incubated at 4° C. for 30 minutes. Finally, after washing the cells with FACS buffer, they were resuspended in 200 μL of FACS buffer for analysis. The parent TIGIT antibody P03479 was used as a control.

[2] = target: T2, recombinant IL2Rβ subunit (Sinobio); test: BLI, recombinant IL2Rβ subunit
[3] = target: T3, IL2Rαγ (dimer) on 293F cells; test: flow cytometry on 293F cells expressing IL2Rαγ
Source text: The expression of the respective IL2R subunits on the cell membrane was detected using antibodies against IL2Rα, IL2Rβ, and IL2Ry.

Binder | EC50 [1] [µg/mL] | Kd [2] [nM] | binding result [3]
B1 | 0.28 |  | 
B2 | 0.33 | ~8.2 | binds

— patent publication US20240400680A1 (SHANGHAI CELGEN BIO PHARMACEUTICAL, published 2024)
